Screen size: about 45,000 compounds; about 65 (0.1%) were called active. Calls follow the shape of the dose curve; as a rule, active = well fitted activation curve with a large enough effect; inconclusive = small, poorly fitted or top-dose-only effect; inactive = no such curve, though single readings can be large or run the other way. The list shows a part of the results.
Target: Galactocerebrosidase (Homo sapiens) (UniProt P54803)
Assay: A Novel Cell-Based Assay to Identify Small Molecules for B -Galactocerebrosidase; also: 0% is about no effect; nearly all actives have a fitted effect of over 65% in size
Conditions: 145M-Twi-hGALC-G270D cells (Twitcher mouse brain line with human GALC G270D), HMU-beta-Gal fluorescence, 48 h; series mostly up to 57.5 µM; activation: at the top concentration
How it was run: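 Fluorescence readout: HMU-β-gal cleavage by mutant GALC (0.1 mM final, citrate/phosphate pH 5.2 with 1 mg/mL taurocholate), stopped with carbonate/bicarbonate plus Triton X-100. Cells: murine Twitcher 145M-Twi expressing human G270D GALC; qHTS for activators.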

Chain of UniProt P54803 (P54803 whole entry, looked up): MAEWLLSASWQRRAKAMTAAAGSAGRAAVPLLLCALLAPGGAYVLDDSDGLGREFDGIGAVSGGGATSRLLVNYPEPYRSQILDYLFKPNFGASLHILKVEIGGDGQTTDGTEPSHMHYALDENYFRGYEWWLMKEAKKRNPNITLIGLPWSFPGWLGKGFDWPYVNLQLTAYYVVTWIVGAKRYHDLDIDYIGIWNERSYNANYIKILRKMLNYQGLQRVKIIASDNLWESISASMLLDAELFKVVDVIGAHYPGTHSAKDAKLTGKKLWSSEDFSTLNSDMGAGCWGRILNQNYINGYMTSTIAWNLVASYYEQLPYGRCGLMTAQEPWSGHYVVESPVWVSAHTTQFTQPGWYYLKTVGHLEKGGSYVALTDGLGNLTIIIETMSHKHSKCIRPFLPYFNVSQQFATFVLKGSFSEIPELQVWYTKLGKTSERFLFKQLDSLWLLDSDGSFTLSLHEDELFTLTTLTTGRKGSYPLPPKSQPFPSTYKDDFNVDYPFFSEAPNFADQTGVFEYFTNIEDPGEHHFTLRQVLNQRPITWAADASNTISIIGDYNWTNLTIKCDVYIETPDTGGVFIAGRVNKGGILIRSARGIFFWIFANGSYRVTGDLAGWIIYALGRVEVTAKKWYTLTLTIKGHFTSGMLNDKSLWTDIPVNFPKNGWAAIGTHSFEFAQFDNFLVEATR

activation, inactive:
COc1cc(NS(=O)(=O)c2c(C(=O)N3CCCCC3)c(C)n(C)c2C)cc(OC)c1OC -13.8%, COc1ccc(-c2cc3ncc(C(=O)c4cc([N+](=O)[O-])ccc4O)cn3n2)cc1 6.78%, O=C(Nc1cccc2cccnc12)c1ccc(-c2cccc(Cl)c2)o1 -6.85%, COc1cccc(NC(=O)CCCn2c(=O)c3cccn3c3cccnc32)c1 -27.3%, Cc1ccc(CCNC(=O)c2ccc3c(c2)N(Cc2ccccc2F)C(=O)c2ccccc2S3=O)cc1 (stereo unspecified) -11.7%, Cn1nnnc1SCCCNCc1cc(Br)ccc1OCc1ccccc1F -17.3%, CCOC(=O)c1cc(-c2ccccc2)n(CC(=O)Nc2ccccc2OCC)c1C -13.9%, O=C(Nc1sc2c(c1C(=O)NCC1CCCO1)CCC2)c1cc(=O)c2cc(Cl)ccc2o1 (stereo unspecified) 0.361%, Fc1ccc(-c2cc(-c3ccccc3)c3c(n2)-c2ccccc2OC3)cc1 -9.68%, COc1ccc(-c2nc(CCNC(=O)c3ccccc3)cs2)cc1OC -15.6%, Cc1cccc(C)c1NC(=O)CCCn1c(=O)c2cccn2c2ccccc21 -13.9%, O=C1C(=O)N(C2CCNCC2)CCN1Cc1ccccc1 -24.2%, CCOC(=O)c1c(S(=O)(=O)NCC(=O)Nc2ccc(C(C)=O)cc2)c(C)n(C)c1C 4.66%, Fc1ccc(-c2csc(=Nc3cccc(C(F)(F)F)c3)n2Cc2ccc3c(c2)OCO3)cc1 -17.8%, O=C(CN1C(=O)COc2ccc(S(=O)(=O)NC3CCCC3)cc21)NCc1ccccc1Cl -5.54%, Cc1ccc(Cl)cc1NC(=O)CCn1cnc2ccccc2c1=O -14.2%, CCOC(=O)c1ccc(NC(=O)C2=C(C)C(=O)OC23CCN(C(C)=O)CC3)cc1 -1.53%, CCOC(=O)c1cccc(NC(=O)c2cc(C)nc3c2c(C)nn3-c2ccc(C)cc2)c1 -10%, COc1cc(Nc2nc3ccc(Cl)cc3nc2-n2nc(C)cc2C)cc(OC)c1 -17.2%, Cc1cc(C)cc(NC(=O)C(=O)NCC(c2cccnc2)N2CCOCC2)c1 (stereo unspecified) -6.54%, Cn1ncc2c(Nc3cccc(C#N)c3)ncnc21 8.39%, CCc1cccc(C)c1NC(=O)CSc1n[nH]c(-c2ccccc2)n1 -11.1%, CCC(C(=O)NCCC(C)C)N(C(=O)Cn1nnc(-c2ccc(C)cc2)n1)c1cccc(O)c1 (stereo unspecified) -4.38%, Cc1ccc(NC(=O)Cn2c(=O)n(CCC(C)C)c(=O)c3cccnc32)cc1C -14.2%, CCN(CCO)CCCC(C)Nc1ccnc2cc(Cl)ccc12 (stereo unspecified) -11.4% [at 5.77 µM], COc1ccc(Cl)cc1NC(=O)Cn1c(=O)n(Cc2ccc(F)cc2)c(=O)c2cccnc21 -6.16%, Cc1nc(Nc2ncc(C(=O)Nc3c(C)cccc3Cl)s2)cc(N2CCN(CCO)CC2)n1 -18.1%, Cc1ccccc1OCCSc1nnc(-c2cccs2)o1 8.43%, CCOc1ccc(NC(=O)C(C)n2c(=O)cc(-c3ccccc3)c3c(C)nn(C)c32)cc1 (stereo unspecified) -13.5%, CC1CN(C(=O)N2CCC(C(=O)NCc3ccccc3F)CC2)c2cc(Cl)ccc2O1 (stereo unspecified) -8.53%, COc1ccccc1N1CCN(C(=O)Cn2c(=O)nc(-c3ccccc3)c3ccccc32)CC1 -10.2%, Cc1ccc2nc(-c3ccc(C)s3)c(Nc3ccc4c(c3)OCCO4)n2c1 -4.7%, COc1ccccc1-c1nn(CCC(=O)Nc2ccccc2)c2nc(C)cc(C)c12 -13.9%, COc1ccc(CCNC(=O)CN(c2ccccc2)S(=O)(=O)N(C)C)cc1 -17%, O=C(Nc1ccc(F)c(F)c1)C(c1ccccc1)N1Cc2ccccc2C1=O (stereo unspecified) -10.6%, COc1ccccc1C(=O)Nc1ccc(-c2cc(C(F)(F)F)nn2-c2ccccc2)cc1 -5.34%, CCOC(=O)c1c(C)[nH]c(C)c1S(=O)(=O)N1CCCC(C(=O)N2CCN(c3cccc(Cl)c3)CC2)C1 (stereo unspecified) -19.5%, Cc1ccc(C(=O)N2CCN(CCc3ccncc3)CC2)cc1 3%, CCOc1ccccc1NC(=O)Cn1c(=O)n(CCCC(=O)NCc2ccc(C)cc2)c(=O)c2ccccc21 -13.6%, Cc1cccc2sc(N(Cc3cccnc3)C(=O)c3ccco3)nc12 -10.2%, COc1ccccc1OCC(=O)NCCS(=O)(=O)N1CCN(c2ccccc2OC)CC1 -5.15%, Cc1nn(C(C)C(=O)NCc2ccco2)c(=O)c2nn(-c3ccccc3)c(C)c12 (stereo unspecified) -16.7%, Cc1ccc2[nH]cc(C(c3ccccc3)c3ccc(Cl)s3)c2c1 (stereo unspecified) -23.2%, CCN(CC)CCNC(=O)c1cc2c(-c3cccc(OC)c3)nn(C)c2s1 -9.49%, CN1C(=O)c2ccccc2Sc2ccc(NC(=O)N3CCN(c4ccc(F)cc4)CC3)cc21 -15.6%, COc1ccc(NC(=O)C(NS(=O)(=O)c2cccc3nsnc23)C(C)C)cc1OC (stereo unspecified) -7.1%, COc1ccc(-c2nc(S(=O)(=O)c3ccccc3)c(N3CCC(C)CC3)o2)cc1 -18.8%, COc1ccc(C(=O)NCCc2csc(-c3ccc(Cl)cc3)n2)c(OC)c1 -7.21%, Cc1ccc(Cl)cc1-n1c(SCC(=O)NCc2ccccc2)nc2n[nH]c(C)c2c1=N -15.9%, CSc1ccc(CCNC(=O)CN2C(=O)COc3ccc(S(=O)(=O)N4CCCCCC4)cc32)cc1 -4.95%, CCOc1ccc(CNC(=O)c2cc3cc(S(=O)(=O)N4CCCCC4)ccc3n2C)cc1 -14.6%, Oc1ccc(NCc2ccccc2OCc2ccccc2)cc1 -14.2%, CC1CCN(S(=O)(=O)c2ccc3c(c2)N(CC(=O)Nc2ccc(F)c(Cl)c2)C(=O)CO3)CC1 -18.2%, COc1ccc(NC(=O)c2oc3ccccc3c2NC(=O)Cc2ccc(F)cc2)c(OC)c1 -11.4%, COc1ccc(Cl)cc1-n1c(CCC(=O)O)ccc1-c1ccc(C)cc1 -19.2%, O=C(CC1N=C2c3ccccc3N=C(SCc3ccccc3Cl)N2C1=O)NC1CCCCC1 (stereo unspecified) -21.2%, COc1ccc(-c2nc3ccc(C(=O)NCc4ccc(C)cc4)cc3nc2-c2ccc(OC)cc2)cc1 -13.6%, Cc1cc(=O)[nH]c(SCC(=O)N2CCN(c3ccccc3)CC2)n1 -9.51%, CCN1CCN(c2cc(C)c3cc(NC(=O)c4cc(OC)cc(OC)c4)ccc3n2)CC1 -15.2%, Cc1ccc(OCCn2c(COc3ccc(Cl)cc3)nc3ccccc32)cc1 -7.06%, COc1ccc(Br)cc1CNC(=O)CCSCc1ccc(Cl)cc1 -5.82%, CCC(=O)N1CCc2cc(CNS(=O)(=O)c3cc(Cl)ccc3OC)ccc21 -12.4%, Cc1nn(CC(=O)N2CCN(c3ccccc3)CC2)c(=O)c2cc3sccc3n12 -20%, CC1CCN(C(=O)c2ccc(NC(=O)c3nsc4ccccc34)cc2)CC1 -26%, CCOC(=O)c1sc(NC(=O)c2nc3nc(C)cc(C(F)F)n3n2)c(C(=O)OC)c1C -10.8%, COc1cccc(NC(=O)N2CCC(CN3CCOCC3)CC2)c1 -12.2%, CCC(C)NC(=O)Cn1cnc2sc(C)c(S(=O)(=O)N3CCN(c4ccccc4OC)CC3)c2c1=O (stereo unspecified) -11.7%, Cc1c(C(=O)Nc2cccc(Cl)c2)oc2ccc(S(=O)(=O)N3CCOCC3)cc12 -11.5%, COc1ccc(N2C(=O)CCSC23C(=O)N(Cc2ccc(F)cc2)c2ccccc23)cc1Cl (stereo unspecified) -7.49%, Cc1cccc(N2CCN(S(=O)(=O)c3c(C)nc4scc(C)n4c3=O)CC2C)c1 (stereo unspecified) -11.3%, Cc1ccc(CCNC(=O)CN2N=C(c3ccc(C)cc3)CCC2=O)cc1 -12.5%, CCc1ccccc1NC(=O)Cn1c(=O)ccc2cc(S(=O)(=O)N3CCC(C)CC3)ccc21 -21.7%, Cn1nc(C(=O)Nc2ccccc2C#N)c2c1-c1ccccc1SC2 -7.43%, Cc1ccc(NC(=O)CN2C(=O)C(C)(C)c3cc(S(=O)(=O)N4CCCCC4)ccc32)c(Br)c1 -28.3%, CCOc1cccc(C2c3c(oc4cc(C)c(C)cc4c3=O)C(=O)N2c2nc(C)c(C)s2)c1 (stereo unspecified) -2.59%, O=C(NC1CC(=O)N(c2ccc(Cl)cc2)C1)C1CCCCC1 (stereo unspecified) -12.5%, CCOc1ccc(Nc2oc(/C=C/c3cc(OC)c(OC)c(OC)c3)nc2C#N)cc1 -9.58%, COc1cc(C(=O)NCCSc2c(C)[nH]c3ccccc23)cc(OC)c1OC -9.8%, CCOc1ccc(NC(=O)CSc2nc3ccccc3c(=O)n2CCC(=O)NC2CCCCC2)cc1 -4.77%, COc1ccc(NC(=O)CN(C)S(=O)(=O)c2cnc[nH]2)cc1 -15.4%, CCc1ccccc1NC(=O)[C@H](Cc1ccccc1)N1Cc2ccccc2C1=O -11.9%, COC(=O)c1c(NC(=O)/C(C#N)=C/c2ccc(OC)cc2)sc2c1C(C(=O)OC)CC2 (stereo unspecified) -15.5%, COc1ccc(CCNC(=O)CSc2cn(CCNC(=O)c3ccc(OC)c(OC)c3)c3ccccc23)cc1OC -4.46%, O=C(O)CSc1nc2ccccc2nc1N1CCCCC1 -4.01%, COc1ccc(-c2noc(C3CC(=O)N(c4ccc5c(c4)OCCO5)C3)n2)c(OC)c1 (stereo unspecified) -3.09%, COc1cccc(NS(=O)(=O)c2cc(-c3cnc(C4CC4)o3)ccc2C)c1 -5.39%, CC(=O)c1cc2c(cc1N/C(=N/S(=O)(=O)c1ccc(C)cc1)c1ccc(Cl)cc1)OCO2 -11.7%, O=C(CCn1c(=O)c2cccn2c2cccnc21)NCc1cccc(Br)c1 -2.64%, Cc1ccc2c(=O)cc(C(=O)Nc3ccc(S(=O)(=O)N4CCCC(C)C4)cc3)oc2c1C (stereo unspecified) -15.7%, CC(C)Cn1c(SCc2cccc(F)c2)nc2ccsc2c1=O -44.5%, Cc1cccc(C)c1NC(=O)CSc1nccn1C -6.2%, CCOc1ccc(CNC(=O)c2cccc(Nc3nc4ccccc4n4nnnc34)c2)cc1OC -9.41%, Cc1ccc(C)c(CN2C(=O)c3ccccc3S(=O)(=O)c3ccc(C(=O)N4CCN(Cc5ccccc5)CC4)cc32)c1 -17.4%, CCOc1ccc(NC(=O)c2oc3ccccc3c2NC(=O)C(C)Oc2ccccc2)cc1 (stereo unspecified) 1.32%, Cc1ccc(C)c(C(=O)N2CCC(c3nc4c(nnn4Cc4ccccc4)c(=O)[nH]3)CC2)c1 -13.1%, COc1ccccc1C1=Nn2c(nc3sc(C(=O)Nc4ccccc4Cl)c(C)c3c2=O)SC1 5.09%

Reference: PubChem BioAssay AID1159614 (National Center for Advancing Translational Sciences (NCATS), 2016)
